PubChem BioAssay AID651820 (National Center for Advancing Translational Sciences (NCATS), 2012)
Where “and” joins values, the source holds several entries; their conditions need not be identical. Identical values can stand only once. About 12,000 (3.5%) of roughly 340,000 compounds were called active. Inconclusive results, whose numbers are uncertain, are shown with a selection of clear calls. Calls follow the shape of the dose curve; as a rule, active = well fitted inhibition curve with a large enough effect; inconclusive = small, poorly fitted or top-dose-only effect, or another doubt; inactive = no such curve, though single readings can be large or run the other way. Potencies of inconclusive entries are doubtful fits and often do not repeat.

Test: qHTS Assay for Inhibitors of Hepatitis C Virus (HCV)
Settings: Huh7.5.1 HCVcc-Cre (HCVcc is cell-culture hepatitis C virus) infection, luciferase reporter, 44 h; activity change, negative = inhibition: at 41.8 µM (top of the series)
In short: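 A cell-based infection assay in which seeded cells (1,000 per well) receive test compound after 4 h, are inoculated with HCVcc-Cre at approximately 0.5 moi, and are incubated 44 h before luminescence detection.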
% is scaled to controls: 0 for no effect and ±100 for the full control effect; potency is read from the fitted curve at half-maximal effect; tags tell the direction and shape of the fitted curve.

Compound	activity change, negative = inhibition	Potency
C[C@H](CO)N1C[C@H](C)[C@@H](CN(C)S(C)(=O)=O)Oc2c(NC(=O)Nc3ccc4c(c3)OCO4)cccc2C1=O	inactive: 13.3%	–
Cc1cc(C(=O)N/N=C/c2ccc(-c3ccccc3Cl)o2)n[nH]1	–	inconclusive: 31.6 µM [inhibitor, single point]
CC1(c2nnc(-c3ccc(F)cc3)o2)CC(c2ccccc2)=NO1 (stereo not drawn)	–	inconclusive: 0.316 µM [inhibitor, full curve, poor fit]
CC(C)NC(=O)c1ccc(Sc2ccccc2)c([N+](=O)[O-])c1	–	inconclusive: 5.62 µM [inhibitor, single point]
COCCCN=Cc1c(C)[nH]n(-c2ccc(Br)c(C)c2)c1=O	inconclusive: -31.6% [inhibitor]	–
O=C(Cn1nnc2ccccc21)OCC(=O)c1ccc(F)cc1	inactive: 15.3%	–
O=C1NC(=O)/C(=C\c2ccccc2OCc2ccc([N+](=O)[O-])cc2)N1	–	inconclusive: 7.08 µM [inhibitor, partial curve]
CCCCCOc1ccc(CSC(=N)N)cc1[N+](=O)[O-]	–	inconclusive: 22.4 µM [inhibitor, single point]
COc1ccc(CNC(=O)C(c2ccc(C)cc2)N(Cc2cccs2)C(=O)c2ccc3c(c2)OCCO3)cc1 (stereo not drawn)	–	active: 11.2 µM
C[C@H](C(=O)CC(=O)OC(C)(C)C)[C@H](O)c1ccccc1	inactive: -4.45%	–
Cn1c(SCc2nc(-c3ccc(Br)cc3)no2)nnc1-c1ccco1	–	inconclusive: 11.2 µM [inhibitor, partial curve]
CCc1ccc(NC2=NCCCS2)cc1	inactive: -20.3%	–
Cc1c(Cl)ccc2c1NC(=O)[C@]21N[C@@H](Cc2ccccc2)[C@H]2C(=O)N(c3ccc(F)cc3)C(=O)[C@H]21	–	inconclusive: 20 µM [inhibitor, single point]
Cc1cc(C)c(C2C3=C(Nc4c2c(C)nn4-c2ccccn2)c2ccccc2C3=O)c(C)c1 (stereo not drawn)	–	inconclusive: 14.1 µM [inhibitor, partial curve, poor fit]
COc1cccc(C(=O)N(c2ccc(C)cc2)C2C=CS(=O)(=O)C2)c1 (stereo not drawn)	inactive: -18.5%	–
Cc1cccc(-n2cnc3sc(C)c(C)c3c2=O)c1	–	inconclusive: 7.08 µM [inhibitor, partial curve]
Cc1ccc2cc(C(c3nnnn3Cc3ccccc3)N3CCN(c4ccccc4)CC3)c(=O)[nH]c2c1 (stereo not drawn)	–	inconclusive: 31.6 µM [inhibitor, single point]
Cc1ccc2c(c1)COc1c3ccc(C(=O)NC(C)C)cc3nn1-2	–	inconclusive: 11.2 µM [inhibitor, partial curve, poor fit]
O=C(Nc1ccc(Cc2ccncc2)cc1)c1ccco1	inactive: 25.5%	–
COc1ccccc1N1CCN(C2CCCN(Cc3ccc(Cl)cc3)C2)CC1 (stereo not drawn)	–	inconclusive: 31.6 µM [inhibitor, single point]
Cc1nc(N2CCCCC2)sc1C(=O)c1cccc([N+](=O)[O-])c1	–	inconclusive: 2.51 µM [inhibitor, partial curve]
COc1ccc(CCn2c(=N)c(C(=O)NCC3CCCO3)cc3c(=O)n4cccc(C)c4nc32)cc1OC (stereo not drawn)	–	inconclusive: 3.55 µM [inhibitor, single point]

Compound	activity change, negative = inhibition	Potency
O=C(CCc1nc2ccccc2c(=O)[nH]1)N1CCN(c2ccccc2Cl)CC1	–	active: 11.2 µM
CC(C)(C)[C@H]1C=C(C(=O)NCc2nc3ccccc3[nH]2)O[C@@H](OCCCCO)C1	inactive: -5.46% [at 8.37 µM]	–
C=CC[C@@H](CC(=O)N(CCO)Cc1ccccc1)C(=O)N[C@H](C)COC(=O)[C@@H](CC=C)Cc1ccc(F)cc1	–	inconclusive: 25.1 µM [inhibitor, single point]
CC1=C(C(=O)OC2CCCCCCC2)C(c2cc3c(cc2Br)OCO3)CC(=O)N1 (stereo not drawn)	–	inconclusive: 31.6 µM [inhibitor, single point]
CCOC(=O)c1ccc(S(=O)(=O)NNC(=O)c2ccc3c(c2)nc(C)n3CC)cc1	inactive: -4.47%	–
Cc1ccc2[nH]c3c(c2c1)CNCC3	–	inconclusive: 0.708 µM [inhibitor, full curve]
Oc1ccc2c3c1O[C@H]1c4[nH]c5ccccc5c4C[C@@]4(O)[C@@H](C2)N(CC2CC2)CC[C@]314	–	inconclusive: 2.82 µM [inhibitor, single point]
COc1ccc(C)cc1NC(=O)c1ccc([N+](=O)[O-])cc1[N+](=O)[O-]	–	inconclusive: 14.1 µM [inhibitor, single point]
O=C(Cc1c2ccccc2nc2ccccc12)c1ccccc1	inactive: -18.8%	–
O=C(NNc1ccccc1Br)C(=O)n1ccc2ccccc21	inactive: -2.58%	–
CCn1c(-c2c[nH]c3ccccc23)n[nH]c1=S	inactive: 9.12%	–
C/C(=N/NC(=O)NC12CC3CC(CC(C3)C1)C2)c1ccccc1	–	inconclusive: 31.6 µM [inhibitor, single point]
CN1C[C@@H]2C(c3ccccc3)C3(c4ccccc4)CC2(C3)[C@H]1c1ccccc1 (stereo partly drawn)	inactive: -6.61%	–
COc1cc(F)cc(-c2ccc3c(c2)c(-c2cccs2)c(-c2cc(OC)cc(OC)c2)n3C)c1	–	inconclusive: 20 µM [inhibitor, single point]
CCCN1C(=O)/C(=C/c2cc(C)n(C)c2C)SC1=Nc1ccc(OC)cc1	–	inconclusive: 7.08 µM [inhibitor, partial curve]
CCCCCCn1c(-c2ccco2)nc2oc3cc(OC)ccc3c(=O)c2c1=O	–	inconclusive: 5.01 µM [inhibitor, partial curve]
CCOc1ccc(S(=O)(=O)N(C)c2ccc(OCC(=O)Nc3nccs3)cc2)cc1	–	inconclusive: 14.1 µM [inhibitor, single point]
CCC(C)NCCCCOc1cc(C)cc(C(C)C)c1 (stereo not drawn)	–	inconclusive: 10 µM [inhibitor, partial curve]
CCCN1C(=O)c2ccccc2NC1c1ccc(Cl)c(Cl)c1 (stereo not drawn)	–	inconclusive: 31.6 µM [inhibitor, single point]
S=C(Nc1ccc2c(c1)OCO2)Nc1ccccc1Cl	inactive: -0.517%	–
COc1ccc(C(=O)N2c3cc4c(cc3C(C)=CC2(C)C)OCO4)cc1	–	inactive and inconclusive: 22.4 µM [inhibitor, partial curve]
